# Hit rate of the full screen: of about 230,000 compounds, about 3,600 (1.6%) were called active. Inconclusive means that the source gave no clear call. Such entries were picked first, then a sample of the others. Calls follow the shape of the dose curve; as a rule, active = well fitted inhibition curve with a large enough effect (not every such curve was filed as active); inconclusive = small, poorly fitted or top-dose-only effect, or another doubt; inactive = no such curve, though single readings can be large or run the other way. A potency beside an inconclusive call is a rough fit, not a confirmed value.
# Target: Lysine-specific demethylase 4E (Homo sapiens) (UniProt B2RXH2)
# UniProt B2RXH2, sequence (B2RXH2 whole entry, looked up, the tested form may be a part): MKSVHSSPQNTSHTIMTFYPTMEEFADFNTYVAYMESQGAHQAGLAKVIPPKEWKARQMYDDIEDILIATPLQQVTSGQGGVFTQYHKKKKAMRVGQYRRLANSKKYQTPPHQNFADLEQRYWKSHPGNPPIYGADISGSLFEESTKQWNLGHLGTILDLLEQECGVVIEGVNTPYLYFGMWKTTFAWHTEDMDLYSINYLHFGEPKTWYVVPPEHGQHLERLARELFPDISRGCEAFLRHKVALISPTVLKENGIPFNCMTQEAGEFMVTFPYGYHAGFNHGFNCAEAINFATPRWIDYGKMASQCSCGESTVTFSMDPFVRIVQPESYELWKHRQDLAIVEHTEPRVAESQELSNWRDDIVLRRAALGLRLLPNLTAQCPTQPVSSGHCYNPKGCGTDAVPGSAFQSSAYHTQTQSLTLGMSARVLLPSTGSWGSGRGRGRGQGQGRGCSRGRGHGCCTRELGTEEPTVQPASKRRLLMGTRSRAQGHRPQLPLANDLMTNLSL
# Test: qHTS Assay for Inhibitors of Human Jumonji Domain Containing 2E (JMJD2E)
# Conditions: JMJD2E catalytic domain, FDH-coupled NADH fluorescence (FDH is formaldehyde dehydrogenase); series mostly up to 57.1 µM
# Also: nearly all actives have a fitted effect of over 50% in size.
# Potency is read from the fitted curve at half-maximal effect; tags tell the direction and shape of the fitted curve.
row,Compound,Potency
1,N/C(Cn1cncn1)=N\NC(=O)c1ccc(Cl)cc1Cl,inactive
2,CCN1/C(=C/c2ccc3ccccc3[n+]2CC)C=Cc2ccccc21,inactive
3,N#Cc1nc(-c2cccs2)oc1N1CCN(c2ccccc2)CC1,"inconclusive: 0.158 µM [inhibitor, full curve, poor fit]"
4,O=[N+]([O-])c1ccc(CSc2nnc(SCc3ccc(Cl)cc3)s2)cc1,inactive
5,COc1ccc(/C=N/NC(=O)c2[nH]c3ccc(Br)cc3c2-c2ccccc2)c(C(=O)O)c1OC,"inconclusive: 25.1 µM [inhibitor, partial curve]"
6,CN(C)S(=O)(=O)c1ccc(Cl)c(NC(=O)CN2CCN(Cc3ccc4c(c3)OCO4)CC2)c1,inactive
7,Cc1[nH]nc2c1C(c1ccc(-c3ccccc3C#N)o1)C(C#N)=C(N)O2 (configuration not stated),"inconclusive: 22.4 µM [inhibitor, single point]"
8,CCc1cc2c(COC(=O)c3c(C)noc3C)cc(=O)oc2cc1O,"inconclusive: 31.6 µM [inhibitor, partial curve]"
9,Cc1ccc(-c2nc(C#N)c(NCCCn3ccnc3)o2)cc1,"inconclusive: 28.2 µM [inhibitor, partial curve]"
10,Cc1cccc2cc(CN(CCN3CCCC3)C(=O)NC3CCCCC3)c(=O)[nH]c12,"inconclusive: 25.1 µM [inhibitor, single point]"
11,Cc1ccc(NC(=O)C(C)Sc2nnc(-c3cccnc3)o2)cc1 (configuration not stated),"inconclusive: 39.8 µM [inhibitor, single point]"
12,Cc1csc2c(=O)sc(NC(=O)c3ccco3)nc12,"inconclusive: 25.1 µM [inhibitor, single point]"
13,O=C(N/N=C/c1sc2ccccc2c1O)c1cccc2ccccc12,active: 25.1 µM
14,CCN(CC)CCCNC(=O)CSc1nc(-c2cccs2)cc(C(F)(F)F)n1,"inconclusive: 25.1 µM [inhibitor, single point]"
15,Cc1cc(C)nc(SCc2csc(N)n2)n1,inactive
16,O=C(C1CCC(CNS(=O)(=O)c2cccs2)CC1)N1CCCCC1 (configuration not stated),inactive
17,Cc1ccc(Nc2nc(CSc3nnc(-c4ccc(F)cc4)n3C)cs2)cc1,inactive
18,CC1CCCN(C(=O)C2CCN(CC3CC=CCC3)CC2)C1 (configuration not stated),"inconclusive: 20 µM [inhibitor, single point]"
19,Cc1cccc(-n2c(SCC(=O)NCc3ccc4c(c3)OCO4)nc3ccccc3c2=O)c1,"inconclusive: 39.8 µM [inhibitor, single point]"
20,CC(C)=NNc1cc([N+](=O)[O-])cc2c1C(=O)N(C)S2=O (configuration not stated),inactive
21,c1ccc(-n2ncc3c(N4CCCCC4)ncnc32)cc1,inactive
22,CCOc1ccc(/C=N/NC(=O)c2[nH]ncc2Br)c(O)c1,"inconclusive: 28.2 µM [inhibitor, single point]"
23,[O-]c1c[n+](-c2ccc(-[n+]3cc([O-])on3)cc2)no1,active: 25.1 µM
24,CC1(C)Cc2nc3sc4c(=O)n(CC(=O)NCc5ccco5)cnc4c3cc2CO1,"inconclusive: 39.8 µM [inhibitor, single point]"

row,Compound,Potency
1,CCc1ccccc1NC(=O)c1cc(-c2ccc(F)cc2)on1,"inconclusive: 39.8 µM [inhibitor, single point]"
2,O=C1c2ccccc2NC(c2cccc(O)c2)N1Cc1ccco1 (configuration not stated),"inconclusive: 31.6 µM [inhibitor, partial curve]"
3,C=CCOc1ccc(-c2nc3c(c(=O)[nH]c(=O)n3CCCC)n2C)cc1OC,"inconclusive: 2.82 µM [inhibitor, partial curve]"
4,COc1ccc(-n2c(Cc3cccn3C)nnc2SCC(=O)Nc2cccc(Cl)c2)cc1,inactive
5,COC(=O)c1[nH]c2ccc(C)cc2c1NC(=O)CCN1CCN(C2CCCCC2)CC1,"inconclusive: 22.4 µM [inhibitor, partial curve]"
6,COc1ccc2[nH]c(=O)c(CN(C(=O)c3ccco3)C3CCCCC3)cc2c1,"inconclusive: 22.4 µM [inhibitor, partial curve]"
7,CC1(C)C=C(c2ccc(C=O)s2)CC(C)(C)N1C=O,"inconclusive: 31.6 µM [inhibitor, single point]"
8,CCCOc1ccc(Br)cc1/C=N/NC(=O)c1cc(OC)c(OC)c(OC)c1,inactive
9,COc1ccccc1/C=C/C(C)=O,"inconclusive: 25.1 µM [inhibitor, single point]"
10,CCN(C(=O)COC(=O)c1cc(-c2cccs2)nc2ccccc12)C1CCS(=O)(=O)C1 (configuration not stated),"inconclusive: 31.6 µM [inhibitor, partial curve]"
11,Cc1ccc(C)c(CSCC(=O)NCc2cccs2)c1,inactive
12,C=C[C@@H](C)[C@](C)(O)c1ccccc1,inactive
13,Cc1cc(=O)oc2cc(NC(=O)c3cc4ccccc4o3)ccc12,"inconclusive: 17.8 µM [inhibitor, partial curve]"
14,COC(=O)N/N=C(\C)c1ccc(C)c([N+](=O)[O-])c1,inactive
15,Cc1ccc(/C=c2/sc3n(c2=O)CCCN=3)o1,"inconclusive: 25.1 µM [inhibitor, single point]"
16,Cc1ccc(S(=O)(=O)Nc2ccc(-c3csc(-c4ccccc4)n3)cc2)cc1,"inconclusive: 39.8 µM [inhibitor, single point]"
17,CCc1nnc(NC(=O)c2cc(-c3ccco3)nc3ccccc23)s1,"inconclusive: 28.2 µM [inhibitor, partial curve]"
18,CCc1cccc(NC(=O)c2ccc3c(=O)n4c(nc3c2)CCCCC4)c1,inactive
19,COC(=O)c1ccc(C(=O)OC)c(NS(C)(=O)=O)c1,"inconclusive: 39.8 µM [inhibitor, single point]"
20,CCOc1ccc2nc(COC(=O)c3cccs3)c(C(=O)c3ccccc3)[n+]([O-])c2c1,"inconclusive: 31.6 µM [inhibitor, single point]"
21,COC(=O)CSc1[nH]c2cc(C)ccc2c1[N+](=O)[O-],"inconclusive: 39.8 µM [inhibitor, single point]"
22,Fc1ccccc1Nc1nc(Cl)nc(Cl)n1,inactive
23,Clc1ccc(-c2nnc(-c3ccccc3Cl)o2)cc1,"inconclusive: 39.8 µM [inhibitor, single point]"

# Reference: PubChem BioAssay AID2147 (National Center for Advancing Translational Sciences (NCATS), 2009)
